We go through 105 compounds from PubChem BioAssay AID1347073 (National Center for Advancing Translational Sciences (NCATS), 2019).

Screen size: about 45,000 compounds; about 200 (0.44%) were called active. Not shown: some 7% with an inconclusive outcome. Calls come from the whole dose curve; as a rule, active = well fitted activation curve with a large enough effect; inconclusive = small, poorly fitted or top-dose-only effect; inactive = no such curve, though single readings can be large or run the other way. This is one part of the list.

The nature of the test: qHTS of TDP-43 Inhibitors: NCGC Sytravon Library Screen. Note: 0% is about no effect; nearly all actives have a fitted effect of over 55% in size. The note with it: yeast TDP-43 toxicity rescue, BacTiter-Glo growth, 24 h; series mostly up to 46.1 µM; growth rescue (activation): at the top concentration. Put shortly: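 TDP-43-expressing yeast, pregrown in raffinose, seeded at OD600 0.02 in galactose medium with compound for 24 hr at 30 deg C. Growth read by BacTiter-Glo luminescence, so rescue of toxicity appears as activation.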
(In general: Quantitative high-throughput screening tests each substance at several concentrations.)
Consider `O=C(NC(=S)N1CCOCC1)c1cc2ccccc2o1`, for which the “growth rescue (activation)” value is inactive: 9.08%. Take `O=C(Nc1ccccc1)c1ccccc1OCc1ccc(S(=O)(=O)N2CCOCC2)cc1`: the “growth rescue (activation)” value is inactive: 9.27%. As to `Cc1cccc(C)c1NC(=O)CN(c1ccccn1)S(=O)(=O)c1ccccc1`, the “growth rescue (activation)” value was inactive: 11.4%. Next, `O=C(O)CC(NCc1ccco1)C(=O)Nc1cccc(O)c1` (stereo not given): inactive: 36.8%; `COc1cccc(/C=N/NC(=O)c2c(C)nc3ccc(Cl)cn23)c1O`: inactive: 16.7%.

As for `O=c1[nH]c(=O)n(Cc2ccccc2)c2nc(-c3ccc(C(F)(F)F)cc3)n(CCO)c12`, the “growth rescue (activation)” value was inactive: 7.06%.

As to `O=C(COC(=O)c1cccc(S(=O)(=O)N2CCCCC2)c1)NCc1ccccc1`, the “growth rescue (activation)” value was inactive: 1.24%.

As for `CCOc1ccc(C(C)=O)cc1NC(=O)/C=C\C(=O)O`, the “growth rescue (activation)” value is inactive: 18.4%. Take `O=C1C(Cc2cccc([N+](=O)[O-])c2)S/C(=N/N=C/c2ccco2)N1c1ccccc1` (stereo not given): the “growth rescue (activation)” value was inactive: 13.8%.

With `CCC(=O)N1CCCC(C(=O)Nc2nc3ccccc3n2C)CC1` (stereo not given), the “growth rescue (activation)” value was inactive: 4.76%. `CNc1cncc(-c2cccc(C(C)=O)c2)n1`: the “growth rescue (activation)” value was inactive: 17.5%. As to `OC1CCN(C(=S)Nc2ccc(Nc3ccccc3)cc2)CC1`, the “growth rescue (activation)” value was inactive: 10.9%. Next, `O=C(NCC(=O)N(c1ccccc1)C(C(=O)NC1CCCCC1)c1cccnc1)c1cccs1` (stereo not given): inactive: -0.26%. Next, `CC1(C(=O)NS(=O)(=O)Cc2cccc(Cl)c2)CCN1C(=O)C/C=C/c1ccccc1` (stereo not given): inactive: 10.4%; `O=C(NCc1ccco1)c1ccc2c(c1)N(Cc1ccccc1)C(=O)c1ccccc1S2(=O)=O`: inactive: 14.1%; `Cc1ccc(C)c(C2C(=O)c3ccccc3C2=O)c1`: inactive: 15.5%. On to `O=C(Nc1ccc2c(c1)OCO2)C1CC(c2cccc(Br)c2)=NO1` (stereo not given), for which the “growth rescue (activation)” value was inactive: 10.5%.

As to `CCOc1ccc(N2CC(C(=O)Nc3nnc(Cc4ccc(OC)c(OC)c4)s3)CC2=O)cc1` (stereo not given), the “growth rescue (activation)” value was inactive: 1.5%. For the compound `COc1ccc(-c2cc3c(=O)n(CC(=O)NC4CCN(Cc5ccccc5)CC4)ncn3n2)cc1`, the “growth rescue (activation)” value is inactive: -13.9%. For `N=c1c(C(=O)NCCc2ccccc2)cc2c(=O)n3ccccc3nc2n1CCCN1CCOCC1`, the “growth rescue (activation)” value was inactive: 4.15%.

Regarding `CC1(C)Cc2ccccc2-c2nc3n(c(=O)c21)CCCS3`, the “growth rescue (activation)” value was inactive: 25.6%. With `S=C1NCCNC(=S)NCCOCCN1`, the “growth rescue (activation)” value is inactive: 1.78%. For the compound `CC1CN(Cc2ccccc2)C(C)CC1O` (stereo not given), the “growth rescue (activation)” value is inactive: 16.4%. For `O=C1[C@@H]2[C@@H]3C[C@@H]([C@H]4ON=C(c5ccc(Cl)cc5)[C@@H]34)[C@@H]2C(=O)N1C1CCCCC1` the value was inactive: 25.6%; for `Cc1cc2oc(=O)sc2cc1NS(=O)(=O)c1cccc2cccnc12`, inactive: 7.65%. Next, `CC(=O)NN1C(=O)/C(=C/c2ccc(C(C)C)cc2)SC1=S`: inactive: 9.51%. Next, `CC(C)C(NS(=O)(=O)c1cc(C(=O)O)ccc1Cl)C(=O)O` (stereo not given): inactive: 19.7%.

As for `CCCCn1c(N)c(N(C)C(=O)C2CC(=O)N(Cc3ccco3)C2)c(=O)[nH]c1=O` (stereo not given), the “growth rescue (activation)” value is inactive: -0.455%. For `CCc1nc2ccccc2n1Cc1ccc(OC)c(OC)c1` the value was inactive: -3.61%; for `O=C(CSc1nnc(-c2ccc(F)cc2)o1)NC1CCCC1`, inactive: 2%; for `O=C(Nc1ccccc1N1CCN(C(=O)c2ccccc2)CC1)c1ccc([N+](=O)[O-])o1`, inactive: 19.9%.

Regarding `COc1ccc(NC(=O)Nc2nc3ccccc3s2)cc1`, the “growth rescue (activation)” value is inactive: 9.92%. Next, `CCOCCc1nnc(NC(=O)C2CC(=O)N(CCc3ccc(F)cc3)C2)s1` (stereo not given): inactive: 6.38%; `COC(=O)Cc1[nH]n(-c2ccccc2)c(=O)c1C=Nc1ccc(C)cc1`: inactive: 12.7%; `O=C(N/N=C/c1cn(-c2ccccc2)nc1-c1ccc(F)cc1)c1ccc(Br)o1`: inactive: 14.7%.

In the case of `Cc1ccc(-c2csc3ncnc(SCc4ccc(C(=O)O)cc4)c23)cc1`, the “growth rescue (activation)” value is inactive: 24.3%.

On to `CC(=O)Nc1cccc(/C(C)=N/NC(=O)c2cccs2)c1`, for which the “growth rescue (activation)” value was inactive: 11.5%. In the case of `COc1ccc(N2CCN(C(=O)CN(C)S(=O)(=O)c3cc(C)ccc3OC)CC2)cc1`, the “growth rescue (activation)” value is inactive: 3.36%.

Regarding `CCCOc1ccc(F)cc1-c1cc(C(=O)NCc2ccccc2)[nH]n1`, the “growth rescue (activation)” value is inactive: 24.7%. In the case of `O=C1C2C3C=CC(C3)C2C(=O)N1Nc1ccccc1` (stereo not given), the “growth rescue (activation)” value is inactive: 5.72%. For `COc1cc(Cn2c3ccc(NC(=O)CC(C)C(F)(F)F)cc3c(=O)n2C)ccc1F` (stereo not given) the value was inactive: 5.39%; for `CC(=N)C1=C(O)CC(c2ccccc2)CC1=O` (stereo not given), inactive: -49.4%; for `Cc1ccc(CNC(=O)COc2ccc(S(=O)(=O)N3CCCC3)cc2)cc1`, inactive: 5.38%. Next, `CCC(C)[C@H](NC(=O)C1CCC(CNC(=O)[C@@H]2CCCN2C(=O)OC(C)(C)C)CC1)C(=O)O` (stereo not given in full): inactive: 0.146%; `CNC(=O)N(O)C1N(/N=C/c2cccs2)C(=S)SC1(C)C` (stereo not given): inactive: 2.2%; `Cc1ncc(CO)c(/C=N/NC(=O)c2ccoc2C)c1O`: inactive: -14.7%.

With `O=C(Nc1ccccc1)C1CC(=O)n2c(nc3ccccc32)N1` (stereo not given), the “growth rescue (activation)” value is inactive: 3.59%. With `CC(C)OP(=O)(OC(C)C)C(Nc1ccccn1)c1ccc(F)cc1` (stereo not given), the “growth rescue (activation)” value is inactive: 20.6%. Next, `CCN(CC)CCCN=Cc1c(-c2ccccc2)[nH]n(-c2nc3ccccc3s2)c1=O`: inactive: 19.9%; `COc1ccc(C2C(C#N)=C(N)Oc3cc(O)ccc32)cc1` (stereo not given): inactive: 0.748%. Next, `CC1CCC2C(=O)N(c3ccc(NC4CCCCC4)c([N+](=O)[O-])c3)C(=O)C2C1` (stereo not given): inactive: -12.3%; `Cc1ccc(NC(=O)C2CCCN(S(=O)(=O)c3cccc4nonc34)C2)cc1` (stereo not given): inactive: -0.639%.

For the compound `O=C(CN(C(=O)c1csnn1)c1ccc(F)cc1)NCc1ccc(F)cc1`, the “growth rescue (activation)” value is inactive: 9.08%. Next, `CCOC(=O)C1(Cc2ccccc2)CCN(C2Cc3ccccc3C2)CC1`: inactive: 13.7%.

Regarding `Cc1cc(S(=O)(=O)N2CCOCC2)ccc1OCC(=O)N1CCC(C)CC1`, the “growth rescue (activation)” value is inactive: -1.71%. Regarding `Cc1ccsc1C(=O)OCC(=O)NCc1ccccc1`, the “growth rescue (activation)” value is inactive: 20.2%. With `CSCCC(NC(=O)c1ccc(Cl)cc1)C(=O)OCC(=O)Nc1cc(Cl)ccc1C#N` (stereo not given), the “growth rescue (activation)” value is inactive: 0.763%. For `CCCn1c(=S)[nH]c2sc3c(c2c1=O)CCCC3` the value was inactive: 0.536%; for `CCOC(=O)Cc1csc(NC(=O)c2ccc3ccccc3n2)n1`, inactive: 1.81%. As for `COc1ccc(CCNCc2ccccc2N2CCCC2)cc1`, the “growth rescue (activation)” value was inactive: -6.75%. Next, `O=C(CSc1nc2ccccc2o1)Nc1nc(-c2ccccc2)cs1`: inactive: 17.7%. Next, `COc1ccc(COC(=O)CN2C(=O)NC3(CC(C)CC(C)(C)C3)C2=O)cc1F` (stereo not given): inactive: -22.2%; `C=CCNC(=S)N1CCN(C2CCCCC2)CC1`: inactive: 19.7%; `CC(=O)Nc1ccc(NC(=O)CNC(=O)COc2ccccc2)cc1`: inactive: 9.52%. Next, `O=S(=O)(c1ccc(NC(=S)NCc2ccco2)cc1)N1CCCC1`: inactive: -7.11%. For the compound `COc1cc(/C=C(/C#N)c2nc3ccccc3c(=O)[nH]2)ccc1O`, the “growth rescue (activation)” value is inactive: -1.21%. Next, `CN(C)N(C)C(=O)C(O)(c1ccccc1)c1ccccc1`: inactive: 15.7%; `Cc1ccc(NCc2ccc(Cl)nc2)c(NCc2ccc(Cl)nc2)c1`: inactive: 15.2%. Next, `O=C(CCc1ccccc1)NNC(=O)c1cccc(F)c1`: inactive: 0.708%; `Cc1cccc(NC(=S)NC(=O)c2ccc(Br)o2)c1`: inactive: 22.7%; `CN(Cc1cccnc1)Cc1cn[nH]c1-c1ccc(-c2ccccc2)cc1`: inactive: 5.12%.

`CNC(=O)C1(C)Cc2c(-c3ccc4c(c3)OCO4)ccnc2O1` (stereo not given): the “growth rescue (activation)” value is inactive: -1.68%. In the case of `CCCN(CCC)c1ccc(/C=N/NC(=O)CN2CCOCC2)cc1`, the “growth rescue (activation)” value was inactive: -8.15%. In the case of `Cc1nn(-c2ccccc2)c(N2CCCC2)c1/C=N/Nc1ccc(S(N)(=O)=O)cc1[N+](=O)[O-]`, the “growth rescue (activation)” value was inactive: -0.695%. For `O=C(COC(=O)c1ccc(N2CCCC2=O)cc1)c1ccc(OC(F)F)cc1` the value was inactive: 6.87%. As to `CN(CCCNC(=O)c1cc2c(Cl)nc3ccccc3c2s1)Cc1ccccc1`, the “growth rescue (activation)” value was inactive: -0.829%. For `CCOCCCn1c(SCC(=O)Nc2ccc(OC)cc2)nc2ccccc2c1=O` the value was inactive: -5.76%; for `CC(=O)Nc1ccc(-c2csc(NC(=O)CCCc3cccs3)n2)cc1`, inactive: 7.07%.

As for `COc1ccc(C(C)(NC(C)=O)c2nc(-c3cccc(C(=O)O)c3)cs2)cc1` (stereo not given), the “growth rescue (activation)” value is inactive: -13.1%. For `CN1C(=O)[C@@H]2[C@@H]3C[C@@H]([C@H]4ON=C(c5ccc(Cl)cc5)[C@@H]34)[C@@H]2C1=O` the value was inactive: 1.98%; for `O=C(CN1C(=O)NC2(CCCC2)C1=O)Nc1ccc(F)c([N+](=O)[O-])c1`, inactive: -6.1%; for `CCc1nc2ccc(C(=O)Nc3cccc(NS(C)(=O)=O)c3)cn2c1N(C)C(=O)c1cccc(OC)c1`, inactive: 8.36%. For `O=C1CCCN1CCCNC(=S)Nc1cccc2ccccc12` the value was inactive: -11.6%; for `O=C(NCCc1ccccc1)c1ccc2c(c1)N(Cc1ccc(F)cc1)C(=O)c1ccccc1S2(=O)=O`, inactive: 5.28%; for `Cc1nn(-c2ccccc2)c2c1C(c1ccc(F)cc1)C(C#N)=C(N)O2` (stereo not given), inactive: 4.08%.

Turning to `COc1ccc2oc(C(=O)NCC(Cc3ccccc3)N(C)C)c(C)c2c1` (stereo not given), the “growth rescue (activation)” value was inactive: 13.3%. For `CCCCOC(=O)/C=C/c1ccc(OC(=O)OC)c(OC(=O)OC)c1` the value was inactive: -35.5%; for `O=C(CN1CCCCC1)Nc1c2c(nc3ccccc13)N(c1ccccc1)CC2`, inactive: 4.38%. Turning to `CCOC(=O)C1=C(CC)OC(N)=C(C#N)C1c1ccc(NC(C)=O)cc1` (stereo not given), the “growth rescue (activation)” value is inactive: 3.8%. For `Cc1cccc(Cn2c(O)c(N=NC(=S)Nc3ccccc3F)c3ccccc32)c1` the value was inactive: 21.7%. Next, `Cc1cccc(NS(=O)(=O)c2ccc3c(c2)oc(=O)n3C)c1C`: inactive: 4.48%; `O=C(Nc1cc(S(=O)(=O)N2CCCCC2)ccc1O)c1ccccc1NS(=O)(=O)c1ccc(F)cc1`: inactive: 4.5%; `O=C(NC(=S)N1CCN(c2ccccc2)CC1)c1ccco1`: inactive: 25.1%.

For `Cc1ccc(/C=N/N2CCN(Cc3cccc4ccccc34)CC2)s1`, the “growth rescue (activation)” value is inactive: -4.1%. Regarding `CN(C)S(=O)(=O)c1cccc(NC(=O)COC(=O)/C=C/c2cccs2)c1`, the “growth rescue (activation)” value was inactive: 5.72%. For `COc1ccccc1CN(C)CC(=O)NC1CCCc2ccccc21` (stereo not given) the value was inactive: 1.9%. In the case of `O=c1c2ccccc2[nH]c2ccc(O)cc12`, the “growth rescue (activation)” value is inactive: -35.9%. Turning to `CN(C)C(CNC(=O)C1CCN(S(=O)(=O)c2cccc(Cl)c2Cl)CC1)c1ccccc1` (stereo not given), the “growth rescue (activation)” value was inactive: 21.6%.

As to `Cc1cc(N2C(=O)C3C4C=CC(C4)C3C2=O)ccc1NC(=O)c1cccs1` (stereo not given), the “growth rescue (activation)” value is inactive: -24.4%. For `CC(=O)Nc1ccc(S(=O)(=O)NCCOc2ccc(Cl)cc2C)cc1` the value was inactive: -12.3%; for `c1ccc(-c2c[n+]3c(n2-c2ccccc2)SCC3)cc1`, inactive: -20.1%. Next, `CN(C(=O)c1cc(-c2ccccc2)on1)C1CCCCC1`: inactive: 22.1%; `O=C(COc1c(F)c(F)cc(F)c1F)NNC(=O)CC1CCS(=O)(=O)C1` (stereo not given): inactive: 17.7%; `COCCn1c(Cc2ccccc2)nnc1SCC(=O)Nc1ccccc1`: inactive: -5.82%.

Turning to `O=C(O)C1CCCCC1C(=O)NCCc1ccc(F)cc1` (stereo not given), the “growth rescue (activation)” value is inactive: 7.6%.
